From publication PMC4336329 (PLoS ONE, 2015)
Hit rate of the full screen: of about 310,000 compounds, about 14,000 (4.5%) showed an effect of 50% or more. Effects have a minus sign here. The list shows a part of the results.

Target: human ether-à-go-go-related gene (hERG) potassium channel (human, UniProt Q12809)
Test: primary screen, population patch clamp on CHO cells stably expressing hERG
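Also: peak tail current of the secondary pulse compared with the same well before compound.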

Sequence of human ether-à-go-go-related gene (hERG) potassium channel (Q12809 whole entry, looked up): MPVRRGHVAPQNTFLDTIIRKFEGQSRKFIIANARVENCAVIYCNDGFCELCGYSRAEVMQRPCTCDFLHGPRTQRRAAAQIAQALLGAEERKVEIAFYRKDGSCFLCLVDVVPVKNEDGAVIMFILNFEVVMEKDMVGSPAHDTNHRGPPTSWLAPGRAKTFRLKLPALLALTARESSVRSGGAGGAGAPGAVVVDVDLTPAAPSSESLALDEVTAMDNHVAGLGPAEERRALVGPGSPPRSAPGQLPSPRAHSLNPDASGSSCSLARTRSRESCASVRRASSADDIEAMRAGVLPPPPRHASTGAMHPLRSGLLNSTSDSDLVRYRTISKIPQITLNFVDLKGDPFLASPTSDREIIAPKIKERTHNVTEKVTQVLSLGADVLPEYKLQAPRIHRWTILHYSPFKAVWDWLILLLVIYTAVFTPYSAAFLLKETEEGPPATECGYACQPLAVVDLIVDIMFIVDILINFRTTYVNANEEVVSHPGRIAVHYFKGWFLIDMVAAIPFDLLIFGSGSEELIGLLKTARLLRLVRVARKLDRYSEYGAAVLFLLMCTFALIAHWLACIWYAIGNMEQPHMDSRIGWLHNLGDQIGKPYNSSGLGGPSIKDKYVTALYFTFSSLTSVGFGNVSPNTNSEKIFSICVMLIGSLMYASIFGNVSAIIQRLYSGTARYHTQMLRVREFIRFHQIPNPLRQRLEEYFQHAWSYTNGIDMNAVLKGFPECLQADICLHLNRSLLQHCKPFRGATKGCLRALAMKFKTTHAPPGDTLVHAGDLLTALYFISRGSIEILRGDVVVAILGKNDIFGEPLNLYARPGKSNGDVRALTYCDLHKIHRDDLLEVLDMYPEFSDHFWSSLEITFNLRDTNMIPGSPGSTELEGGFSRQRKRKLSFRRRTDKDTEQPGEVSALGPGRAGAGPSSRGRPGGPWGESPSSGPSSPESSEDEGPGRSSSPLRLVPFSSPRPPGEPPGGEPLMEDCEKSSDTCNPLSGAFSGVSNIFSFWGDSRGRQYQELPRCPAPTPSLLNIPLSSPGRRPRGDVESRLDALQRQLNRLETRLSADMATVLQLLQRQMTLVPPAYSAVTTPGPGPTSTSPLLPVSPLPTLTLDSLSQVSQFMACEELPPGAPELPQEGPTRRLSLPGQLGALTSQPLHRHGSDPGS

SMILES | hERG current change (%, negative = inhibition) at 10uM
COc1cc(OC)c2c3c(c(C4CCCCC4)nc2c1)CCC3 | 8.05%
CC(C)c1ccc(C2C(C(=O)c3ccco3)=C(O)C(=O)N2CC2CCCO2)cc1 (stereo not shown) | 17.1%
Cc1cccc(CCN2C(Nc3ccccc3)=NC[C@@H]2C)c1 | -23%
COC(=O)C(C(=O)Nc1nc2ccccc2s1)C1CCCC1 (stereo not shown) | 2.83%
O=C(O)c1cc2[nH]c3c(c2cc1Cl)CCCC3 | -26.8%
O=C(Nc1nncs1)C1CC(=O)N(C2CCCC2)C1 (stereo not shown) | 0.553%
Cn1ncnc2c(=O)n(C)c(=O)nc1-2 | -2.67%
CCCCCCCCCCOC(=O)Cn1c(COc2ccccc2OC)[n+](C)c2ccccc21.[Cl-] | -77.3%
CS(=O)(=O)Nc1ccc(C(=O)Nc2ccc(S(=O)(=O)N3CCCCC3)cc2)cc1 | -13.8%
CCSCCOC(=O)C1=C(C)N(C)C(=O)NC1c1cc(OC)ccc1OC (stereo not shown) | -17.5%
CCCCCCNC(=O)CCCCCNS(=O)(=O)c1ccc(OC)cc1 | -32.3%
CCC(C(=O)NN1C(=O)c2ccccc2C1=O)c1ccccc1 (stereo not shown) | 10.4%
Cc1nnc(NC(=O)C2CCN(C(=O)c3ccco3)CC2)s1 | 13.4%
COCCN1C(=O)C(=O)/C(=C(/O)c2ccc(S(=O)(=O)N3CCCCC3)cc2)C1c1ccc(OC)cc1 (stereo not shown) | 20.4%
Cc1cc(C)cc(OCCCCCNCCO)c1 | -15.1%
Cc1ccccc1NC(=O)CSC(N)=O | 18.3%
NC(=O)CNC(=O)[C@@H]1CC2(CC(c3cccc(Br)c3)=NO2)CN1C(=O)c1ccc(Br)cc1 (stereo partly shown) | 1.33%
COc1ccc(S(=O)(=O)N(C)C)cc1NC(=O)c1ccc2c(c1)NC(=O)C(C)S2 (stereo not shown) | 12.7%
Cc1cc(C(F)(F)F)nc(CCNCc2c(C(=O)N3CCCC3)nc3ccccn23)n1 | -14.4%
CC(C)CC(O)(CC(C)C)C(=O)NNc1ccccc1 | 7.57%
COc1ccc(CNC(=O)c2cccc3c2C(=O)N(Cc2cccnc2)C3)cc1 | -38.6%
O=C(CSc1nnc(CNC(=O)c2cccs2)o1)Nc1ccc2c(c1)OCO2 | 13.5%

SMILES | hERG current change (%, negative = inhibition) at 10uM
Cc1ccc(NCc2nnc(SC(C)C(=O)N/N=C/c3ccc(C)o3)n2-c2ccccc2)cc1 (stereo not shown) | -6.08%
COc1ccc(-c2noc(C3CCCN(C(=O)c4ccccc4OC)C3)n2)cc1OC (stereo not shown) | 5.62%
NNC(=O)CNC(c1ccccc1)c1cc(Br)ccc1NC(=O)CCN1CCOCC1 (stereo not shown) | 3.67%
CCN=C1SC(CC(=O)NCCc2ccc(OC)cc2)C(=O)N1CC (stereo not shown) | 17.5%
CC/C(=N\NC(=O)c1c(-c2ccccc2)noc1C)c1ccc(C)o1 | -0.958%
O=C(CSc1ncccc1C(=O)O)c1cccc(C(F)(F)F)c1 | 2.44%
COc1ccc(CC(=O)Nc2nc3ccccc3s2)cc1S(=O)(=O)N1CCOCC1 | -65.9%
Cc1cc(-n2cnnn2)cc(C)c1S(=O)(=O)N(C)c1ccccc1 | -17.2%
CCOn1c(=O)c(-c2cccs2)[n+]([O-])c2ccccc21 | -4.14%
Cn1c(O)c(C(=Nc2ccccc2)SCc2ccc(Cl)cc2)c(=O)n(C)c1=O | 11.4%
Cn1cnnc1SCc1ccc(F)c2ccccc12 | -8.61%
CC(=O)c1sc(-c2ccccc2)cc1NS(=O)(=O)c1ccccc1 | 15.1%
O=C(CCn1cnnn1)Nc1ccc(Cl)cc1Cl | 9.42%
CC1CC(C)CN(c2nc(NCc3ccco3)nc(N)c2[N+](=O)[O-])C1 (stereo not shown) | -27.4%
CCCCN1C(=O)/C(=C/C=C2\N(C)c3ccccc3C2(C)C)SC1=S | 15.6%
O=C(OCCN1C(=O)c2ccccc2C1=O)c1cc(=O)[nH]c2ccccc12 | 6.81%
CC(O)/C=C/c1cccc[n+]1C.[I-] (stereo not shown) | 8.46%
O=[N+]([O-])c1ccc(Cl)cc1NCC1CCCO1 (stereo not shown) | -5.08%
CCOC(=O)c1c(C)[nH]c(C(=O)OC(C)C(=O)NCc2ccccc2)c1C (stereo not shown) | 17.4%
CC(C)(C)OC(=O)N1CCC(c2c(C(=O)NC3CC3)cnn2-c2ccc(Cl)cc2)CC1 | -3.61%
COc1cc(/C=C2/C(=N)N3C(=NC2=O)SN=C3S(C)(=O)=O)ccc1OS(=O)(=O)c1ccccc1 | 2.2%
O=C(O)c1ccc(Sc2nnnn2-c2ccccc2)c([N+](=O)[O-])c1 | -2.2%

SMILES | hERG current change (%, negative = inhibition) at 10uM
COc1ccc(NC(=O)C2CCCC2)cc1 | 14%
O=[N+]([O-])c1ccc(O)c(NC(=S)Nc2ccccc2)c1 | 23.9%
COc1ccc(C(CNC(=O)C(=O)NC2CCCCC2)N2CCN(C)CC2)cc1 (stereo not shown) | -27.7%
COc1cc(C2NC(=O)NC(O)(C(F)(F)F)C2C(=O)c2ccc(Cl)cc2)ccc1O (stereo not shown) | 17.2%
COc1ccc(Cl)cc1NC(=O)CN(C)C(=O)Cc1ccsc1 | -30%
N#CCC(=O)N/N=C/c1cccc(Oc2ccccc2)c1 | -4.8%
CCN(C(=O)COc1ncnc2sccc12)c1ccccc1 | 63.8%
Cc1cccc2c1=NC(=O)/C(=C/c1c(O)[nH]c(=O)[nH]c1=O)C=2 | 0.296%
Cc1cccc(C)c1NC(=O)CN(C)CC(=O)Nc1sc2c(c1C(N)=O)CCC2 | -33.9%
CC(NC(=O)c1ccccc1F)c1nnc(SCC(=O)NC2=NCCS2)n1C (stereo not shown) | 22.3%
CCCCCN(C(=O)CCC(=O)OCc1cc(C)ccc1C)c1c(N)n(CCCC)c(=O)[nH]c1=O | -49.7%
O=C(C(c1ccccc1)c1ccccc1)N1CCCc2ccccc21 | 11.2%
Cc1ccnc(NC(=O)C2CCCN(c3ncnc4c3nc3n4CCCCC3)C2)c1 (stereo not shown) | -45.6%
CC1CCN(c2ccc(C(=O)N3CCOCC3)cc2[N+](=O)[O-])CC1 | -0.762%
Cc1cccc(NC(=O)CN2CCN(C(=O)C3CCN(C(=O)/C=C/c4ccccc4)CC3)CC2)c1C | -73.9%
CC(C)Nc1nc(Cl)nc(N(C#N)CN2C(=O)c3ccccc3S2(=O)=O)n1 | -1.39%
CC(=O)Nc1ccc(S(=O)(=O)N2CCN(S(=O)(=O)c3ccccc3)CC2)cc1 | 11.7%
CC1CN(C(=O)CCc2cc(C(C)(C)C)c(O)c(C(C)(C)C)c2)CC(C)O1 (stereo not shown) | -5.44%
CCOC(=O)Cn1c(=O)oc2cc(S(=O)(=O)NCCCc3ccccc3)ccc21 | -23.6%
CCOc1ncccc1C(=O)OCc1ccccc1 | 18.9%
Cc1cc(C(=O)N2CCN(Cc3ccccc3)CC2)ccc1[N+](=O)[O-] | -32%
COC(=O)CSc1nccc(-c2cccs2)n1 | 17.3%

SMILES | hERG current change (%, negative = inhibition) at 10uM
CNc1ccc(SC#N)cc1.Cl | 27.6%
CSc1ccc(/C=N/NC(=O)CNc2cccc3ccccc23)cc1 | 8.83%
C/C(CC(=O)Nc1cc(C)ccn1)=N\NC(=O)c1cccc(F)c1 | 12.7%
CCOc1ccc2nc(SCC(=O)NC3CCS(=O)(=O)C3)[nH]c2c1 (stereo not shown) | 6.47%
CSc1nnc(N2C(=O)C(O)=C(C(=O)c3ccco3)C2c2ccccc2)s1 (stereo not shown) | 6.85%
C/C(N)=C(/C#N)C(=O)COC(=O)c1cc(C)n(-c2ccc(F)cc2)c1C | -9.29%
CC(Cc1ccccc1)C(=O)NCc1ccncc1 (stereo not shown) | -2.22%
CCOC(=O)C(NC(=O)Nc1ccc(F)cc1F)(Oc1ccccc1)C(F)(F)F (stereo not shown) | -3.02%
Clc1ccccc1CSc1nnc(-c2ccncc2)o1 | -14%
COc1cccc(C(=O)N(CN2CCCC2=O)c2cccc(Cl)c2)c1OC | 0.626%
S=C(Nc1ccc(Cl)cc1)N1CCOCC1 | 0.368%
CC1Nc2ncnc(N3CCc4ccccc4C3)c2N(Cc2ccc(Br)cc2)C1=O.O=C(O)C(F)(F)F (stereo not shown) | 1.81%
CC(=O)Nc1ccc(NS(=O)(=O)c2ccccc2)c2ccccc12 | 10.2%
CC1(C)CC(=O)C2=C(C1)NC(=O)NC2c1ccccc1Cl (stereo not shown) | 16.3%
CC(OC(=O)CSc1ccc([N+](=O)[O-])cc1)C(=O)NCc1ccco1 (stereo not shown) | -8.82%
O=C(c1ccccc1)N1CCN(CC#Cc2ccccc2)CC1 | -6.16%
COc1cccc(Cn2cccc(NC(=O)NC3CCCCC3)c2=O)c1 | -13.8%
COc1ccccc1C1CCN(Cc2ccc3ccccc3c2)CC1 | -75%
O=C(c1ccccc1)c1ccc2nc(Nc3ccccc3)c3nncn3c2c1 | -23.4%
CCN(C(=O)CN1CCN(c2ccccc2)CC1)c1c(N)n(Cc2ccccc2)c(=O)[nH]c1=O | 7.81%
CCCCC(c1nnnn1C1CCCC1)N1CCN(C2CCCC2)CC1.Cl (stereo not shown) | -85.6%
O=C1NC(NS(=O)(=O)c2ccc(Cl)cc2)(C(F)(F)F)C(=O)N1CCc1ccccc1 (stereo not shown) | 15.3%
